Results on 13 molecules are retold here after US20180312565A1 (Affibody, published 2018).

T1: human B7-H4 (R&D Systems, cat. no. 6576-B7-50) (human, UniProt Q7Z7D3 29-258, biotinylated in ELISA)
T1 construct: bought; also called hB7-H4
T1 sequence (looked up): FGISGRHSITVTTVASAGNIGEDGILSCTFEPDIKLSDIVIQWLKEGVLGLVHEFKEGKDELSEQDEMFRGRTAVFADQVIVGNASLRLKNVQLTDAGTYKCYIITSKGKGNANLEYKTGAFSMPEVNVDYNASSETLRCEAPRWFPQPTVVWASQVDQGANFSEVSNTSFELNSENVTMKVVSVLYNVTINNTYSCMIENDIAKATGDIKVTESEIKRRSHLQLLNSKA

T2: human PD-L2 Fc Chimera (R&D Systems, cat. no. 1224-PL-100) (human, UniProt Q9BQ51 20-219, biotinylated in ELISA)
T2 construct: bought; also called hPD-L2; not shown: Fc part of the bought Fc chimera, not described
T2 sequence (looked up): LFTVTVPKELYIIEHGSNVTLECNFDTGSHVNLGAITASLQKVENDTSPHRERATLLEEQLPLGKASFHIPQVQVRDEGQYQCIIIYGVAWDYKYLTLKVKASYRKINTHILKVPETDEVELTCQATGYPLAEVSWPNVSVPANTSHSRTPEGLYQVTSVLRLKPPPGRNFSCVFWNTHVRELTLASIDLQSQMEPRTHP

T3: human B7-H3 Fc Chimera (R&D Systems, cat. no. 1027-B3-100) (human, UniProt Q5ZPR3-2 29-245, biotinylated in ELISA)
T3 construct: bought; also called hB7-H3; not shown: Fc part of the bought Fc chimera, not described
T3 sequence (looked up): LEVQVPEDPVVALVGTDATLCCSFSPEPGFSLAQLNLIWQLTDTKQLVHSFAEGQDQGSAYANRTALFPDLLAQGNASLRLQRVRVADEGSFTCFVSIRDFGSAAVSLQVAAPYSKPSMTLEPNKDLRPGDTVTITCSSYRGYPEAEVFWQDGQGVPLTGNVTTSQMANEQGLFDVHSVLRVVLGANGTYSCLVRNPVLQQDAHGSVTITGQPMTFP

B1: His6-Z13088 (designed binder)
chain: MGSSHHHHHHLQVDAKYAKERNNAATEILRLPNLTAGQTWAFIWKLDDDPSQSSELLSEAKKLNDSQAPKVD
B2: His6-Z13304 (designed binder)
chain: B1 chain with T26S, R30A, A36Q, G37L, T39Y, D47A
B3: His6-Z13198 (designed binder)
chain: B1 chain with N23A, T26Y, R30T, A36N, G37K, T39R
B4: His6-Z13147 (designed binder)
chain: B1 chain with N23R, T26Y, R30Q, A36H, G37Q
B5: His6-Z13169 (designed binder)
chain: B1 chain with N23R, T26Q, R30V, A36R, G37K, T39Q
B6: His6-Z13154 (designed binder)
chain: B1 chain with N23D, T26Y, R30Q, A36K, G37R, T39V
B7: His6-Z13112 (designed binder)
chain: B1 chain with N23A, T26F, R30T, A36N, G37E, T39H
B8: His6-Z13080 (designed binder)
chain: B1 chain with N23S, T26E, R30H, A36M, G37Q, T39L
B9: His6-Z13164 (designed binder)
chain: B1 chain with T26Q, R30Q, A36Q, G37L, T39R
B10: His6-Z13165 (designed binder)
chain: B1 chain with N23Y, T26W, G37S, T39Y
B11: His6-Z13120 (designed binder)
chain: B1 chain with N23R, T26N, R30Q, A36K, T39V
B12: His6-Z13158 (designed binder)
chain: B1 chain with N23D, T26F, R30Q, A36N, G37S, T39H, D47E
B13: His6-Z13156 (designed binder)
chain: B1 chain with N23Q, T26V, R30Q, G37A, T39Y

Substitutions are numbered along the chain they refer to.

For the first assay, the target named is T1, human B7-H4 (R&D Systems, cat. no. …). Put plainly: SPR. The protocol: (§1) One flow cell surface on each chip was activated and deactivated for use as blank during analyte injections. In the kinetic experiment, HBS-EP was used as running buffer and the flow rate was 50 μl/min. The analytes, i.e. the Z variants, were each diluted in HBS-EP buffer within a concentration range of 1000 to 0.01 nM and injected for 5 min, followed by dissociation in running buffer for 15-25 min. After dissociation, the surfaces were regenerated with one or two injections of 0.1% SDS. Kinetic constants were calculated from the sensorgrams using the Langmuir 1:1 model of BiaEvaluation software 4.1 (GE Healthcare).
In general terms: Surface plasmon resonance follows binding to a sensor surface in real time, without labels.
In the case of B1, the binding result is given as “no binding (tested: 50 nM)”.
Take B2: the binding result is given as “no binding (tested: 50 nM)”.
B3: the binding result was “no binding (tested: 50 nM)”.
As to B4, the binding result was “no binding (tested: 50 nM)”.
The same measure, in the same setting: the result for B5 reads “no binding (tested: 50 nM)”; that for B6, “no binding (tested: 50 nM)”; that for B7, “no binding (tested: 50 nM)”.

A further assay deals with T2, human PD-L2 Fc Chimera (R&D Systems, …). Put plainly: SPR. The protocol: as §1
B8: the binding result is “no binding (tested: 50 nM)”.
Consider B9, for which the binding result is “no binding (tested: 50 nM)”.
Consider B1, for which the binding result is reported as “no binding (tested: 50 nM)”.
On the same count and under the same terms, the result for B2 reads “no binding (tested: 50 nM)”; that for B10, “no binding (tested: 50 nM)”; that for B3, “no binding (tested: 50 nM)”.
Still for that read-out and setting: for B11 the value was “no binding (tested: 50 nM)”; for B4, “no binding (tested: 50 nM)”; for B5, “no binding (tested: 50 nM)”.
With B6, the binding result was “no binding (tested: 50 nM)”.
Turning to B7, the binding result is reported as “no binding (tested: 50 nM)”.
Turning to B12, the binding result is on record as “no binding (tested: 50 nM)”.

In a further assay the target is T3, human B7-H3 Fc Chimera (R&D Systems, …). Put plainly: SPR. The protocol: as §1
On to B8, for which the binding result is on record as “no binding (tested: 50 nM)”.
With B9, the binding result is listed as “no binding (tested: 50 nM)”.
Same read-out and setting: the result for B1 reads “no binding (tested: 50 nM)”; that for B10, “no binding (tested: 50 nM)”; that for B3, “no binding (tested: 50 nM)”.
Turning to B11, the binding result was “no binding (tested: 50 nM)”.
For the molecule B5, the binding result is listed as “no binding (tested: 50 nM)”.
As to B6, the binding result was “no binding (tested: 50 nM)”.
For the molecule B12, the binding result was “no binding (tested: 50 nM)”.

The target of the next assay is T4, mouse PD-L1 Fc Chimera (R&D Systems, cat. no. 1019-B7) (mouse, UniProt Q9EP73 19-238).
T4 construct: bought; also called mPD-L1; not shown: Fc part of the bought Fc chimera, not described
T4 sequence (Q9EP73 19-238, change not shown): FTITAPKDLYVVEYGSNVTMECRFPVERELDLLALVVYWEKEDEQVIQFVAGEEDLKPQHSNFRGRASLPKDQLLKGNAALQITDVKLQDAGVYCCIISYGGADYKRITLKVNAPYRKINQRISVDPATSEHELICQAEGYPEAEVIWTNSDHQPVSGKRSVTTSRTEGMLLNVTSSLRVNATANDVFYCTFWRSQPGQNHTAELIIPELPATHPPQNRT
Put plainly: SPR. The protocol: as §1
Turning to B1, the binding result is reported as “no binding (tested: 50 nM)”.
In the case of B10, the binding result is reported as “no binding (tested: 50 nM)”.
In the case of B3, the binding result was “no binding (tested: 50 nM)”.
B4: the binding result was “no binding (tested: 50 nM)”.
Same read-out and setting: the result for B5 reads “no binding (tested: 50 nM)”.
B13: the binding result is reported as “no binding (tested: 50 nM)”.
The same measure, in the same setting: the result for B6 reads “no binding (tested: 50 nM)”.

Another assay deals with T3, human B7-H3 Fc Chimera (R&D Systems, …). Kind of assay: SPR (Biacore 2000), hB7-H3 immobilized on CM5 chip, Z variant injected at 50, 5 and 0.5 nM. The protocol: as §1
Turning to B13, the binding result is “no binding (tested: 50 nM)”.

The target of a further assay is T5, human PD-L1 Fc Chimera (R&D Systems, cat. no. 156-B7-100) (human, UniProt Q9NZQ7 19-239, biotinylated with Sulfo-NHS-LC-Biotin in ELISA and AlphaLISA; not biotinylated in SPR).
T5 construct: bought; also called hPD-L1; biotinylated hPD-L1; not shown: Fc part of the bought Fc chimera, not described
Put plainly: AlphaLISA, blocks hPD-L1 binding to hPD-1. The protocol: Finally, streptavidin coated Donor beads (Perkin Elmer, cat. no. 6772002) were added to a final concentration of 40 μg/ml and incubated for 30 min. All incubations were performed at RT in the dark. The plate was analyzed in the EnSpire instrument and the IC50 values were calculated using GraphPad Prism 5.
On the technique in general: In Alpha technology, singlet oxygen from a donor bead excites a nearby acceptor bead.
On to B8, for which the half-maximal inhibitory concentration (IC50) (as a rule, the concentration at which inhibition is half-maximal) came to 2.7 nM.
Consider B9, for which the IC50 stood at 2.3 nM.
Molecule B1 had a 50% inhibitory concentration (IC50) of 0.88 nM.
B2 returned a 50% inhibitory concentration (IC50) of 42 nM.
Molecule B10 gave an IC50 of 1.3 nM.
On the same count and under the same terms, for B3 the value was 1.3 nM; for B11, 4.2 nM.
In the case of B4, the concentration for half-maximal inhibition (IC50) stood at 5.6 nM.
B5 registered an IC50 of 2.2 nM.
On to B13, for which the IC50 stood at 1.4 nM.
In the case of B6, the IC50 was 1.1 nM.
On the same count and under the same terms, the result for B7 reads 3.9 nM; that for B12, 2.4 nM.

In another assay the target is T2, human PD-L2 Fc Chimera (R&D Systems, …). Kind of assay: SPR (Biacore 2000), hPD-L2 immobilized on CM5 chip, Z variant injected at 50, 5 and 0.5 nM. The protocol: as §1
In the case of B13, the binding result is recorded as “no binding (tested: 50 nM)”.

In a further assay the target is T6, PD-L1 on PD-L1 expressing cells (IFNg-stimulated THP-1 cells; MDA-MB-231 cells) (UniProt Q9NZQ7 19-290, limits assumed).
T6 construct: whole, on cells
Kind of assay: FACS, IFNg-stimulated THP-1 cells, 10 µg/ml, normalized to Z13091. The protocol:
Cells incubated with buffer alone were used as negative controls. […] Data from 10,000 cells were obtained using a FACS Calibur ([…]) and the data was analyzed using Flowing software 2.5.0 (Turku University). Mean fluorescence intensity (MFI) was used as a read out of binding capacity.
On to B8, for which the “MFI (normalized)” value turned out to be 1.06.
For B9, the “MFI (normalized)” value was determined as 0.81.
Same read-out and setting: the result for B1 reads 1; that for B2, 0.75.
As to B10, the “MFI (normalized)” value was determined as 1.24.
Still for that read-out and setting: the result for B3 reads 0.89; that for B11, 0.71; that for B4, 0.56.
On the same count and under the same terms, the result for B5 reads 0.91; that for B13, 1.09.
On the same count and under the same terms, for B6 the value was 1.04.
Consider B7, for which the “MFI (normalized)” value worked out at 0.76.
The same measure, in the same setting: for B12 the value was 0.91.

The next assay addresses T5, human PD-L1 Fc Chimera (R&D Systems, …). Kind of assay: SPR, hPD-L1 immobilized. The protocol: as §1
On to B8, for which binding was characterised by a dissociation constant (Kd) of 6.6 nM; the koff (in general, the first-order rate constant of dissociation) came to 0.0092 s⁻¹; the kon (as a rule, the rate constant with which the complex forms) came to 1.4e+06 M⁻¹ s⁻¹.
In the case of B9, the equilibrium dissociation constant (Kd) (as a rule, a measure of binding affinity in units of concentration) was determined as 11 nM; the koff amounted to 0.0087 s⁻¹; the association rate constant (kon) is 790000 M⁻¹ s⁻¹.
On the same counts, the results for B2 are 4.1 nM, 0.0064 s⁻¹ and 1.6e+06 M⁻¹ s⁻¹.
In turn, B10 showed a Kd of 0.64 nM, a koff of 0.0013 s⁻¹ and an association rate constant (kon) of 2e+06 M⁻¹ s⁻¹.
On the same counts, the results for B3 are 0.97 nM, 0.0056 s⁻¹ and 5.8e+06 M⁻¹ s⁻¹.
In turn, B11 returned a Kd of 6 nM, an off-rate constant (koff) of 0.012 s⁻¹ and an on-rate constant (kon) of 2e+06 M⁻¹ s⁻¹.
On the same counts, the results for B4 are 1.6 nM, 0.0017 s⁻¹ and 1e+06 M⁻¹ s⁻¹.
Molecule B5 registered a Kd of 1.5 nM, a dissociation rate constant (koff) of 0.0035 s⁻¹ and a kon of 2.4e+06 M⁻¹ s⁻¹.
Take B13: binding was put at a Kd of 1.5 nM, the koff came out at 0.0025 s⁻¹ and the association rate constant (kon) stood at 1.7e+06 M⁻¹ s⁻¹.
Molecule B7 had an equilibrium dissociation constant (Kd) of 2.5 nM, an off-rate constant (koff) of 0.0015 s⁻¹ and a kon of 610000 M⁻¹ s⁻¹.
The molecule B12 came in with a Kd of 8.3 nM, a koff of 0.0056 s⁻¹ and an on-rate (kon) of 670000 M⁻¹ s⁻¹.
